# Out of some 420,000 compounds screened, about 64,000 (15%) were called active. This list was built around the results that the source calls inconclusive (neither active nor inactive); the mix of calls is not that of the screen. The call rests on the fitted dose curve; in most records, active means well fitted inhibition curve with a large enough effect; inconclusive means small, poorly fitted or top-dose-only effect; inactive means flat fitted curve, though single readings scatter. Potencies of inconclusive entries are left out as doubtful fits.
# Assay: qHTS for Inhibitors of human tyrosyl-DNA phosphodiesterase 1 (TDP1): qHTS in cells in absence of CPT; further: nearly all actives have a fitted effect of over 55% in size
# Details: DT40 Tdp1-/- hTDP1 cells, no CPT, ATP luminescence, 48 h; series mostly up to 46.2 µM
# Method in brief: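 Growth of hTDP1-complemented DT40 Tdp1-knockout cells is measured by ATP luminescence after at least 48 hr compound exposure at 37 °C, with DMSO substituting for the 20 nM CPT used in the parallel screen.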
# Potency means the concentration at half of the fitted maximal effect; tags describe the fitted curve by direction and shape.
row,SMILES,Potency
1,CNS(=O)(=O)c1cccc(C(=O)OCC(=O)Nc2ccc(-c3nc4ccc(C)cc4s3)cc2)c1,"inconclusive [inhibitor, single point]"
2,CCN(CC)S(=O)(=O)c1ccc2[nH]cc(C(=O)NCCN3CCCCCC3)c(=O)c2c1,inactive
3,Cc1cc(C)nc(Nc2n[nH]c(COc3ccc4ccccc4c3)n2)n1,inactive
4,CCN(CC)S(=O)(=O)c1cc(-c2nnc(Nc3ccc(OC)c(C(N)=O)c3)c3ccccc23)ccc1C,"inconclusive [inhibitor, single point]"
5,Cc1cccc2sc(NC(=O)c3cc(S(=O)(=O)N(C)C)ccc3N3CCCC3)nc12,active: 18.4 µM
6,O=S(=O)(NCCN1CCOCC1)c1ccc(F)c(Cl)c1,active: 16.4 µM
7,CC(CN1CCOCC1)OC(=O)C(C)(c1ccccc1)c1ccccc1 (stereo not given),"inconclusive [inhibitor, single point]"
8,CC(=O)C1=C(C)Nc2cc(C(F)(F)F)ccc2S1,inactive
9,CSc1nc(SCc2ccccc2)[nH]c(=O)n1,"inconclusive [inhibitor, single point]"
10,CCOCCCNC(=O)c1ccc(NC(=O)N2CCCCc3ccccc32)cc1,"inconclusive [inhibitor, single point]"
11,Cc1c(NC(=O)c2ccc(Cl)cc2)cc(C(C)C)c(O)c1S(=O)(=O)c1ccc(Cl)cc1,"inconclusive [inhibitor, single point]"
12,CC(=O)N/N=C/c1c(C)[nH]n(-c2ccccc2)c1=O,"inconclusive [inhibitor, single point]"
13,CCOC(=O)C1CCN(c2nc(N)c3c(N)nc(SCC(=O)O)cc3c2C#N)CC1,"inconclusive [inhibitor, single point]"
14,O=C(Cn1ccc2ccccc2c1=O)Nc1ccc2c(c1)OCO2,inactive
15,CC(=O)Nc1csc2ccccc12,inactive
16,COc1cc(OC)c(NC(=O)c2sc3ncn(CC(=O)N4CCOCC4)c(=O)c3c2C)cc1Cl,inactive
17,COc1ccccc1NC(=O)Cn1c(=O)n(-c2ccc(C)cc2)c(=O)c2ccc(C(=O)NCc3ccco3)cc21,"inconclusive [inhibitor, single point]"
18,Cc1cc(Cl)ccc1OCCCC(=O)N/N=C/c1cccc([N+](=O)[O-])c1,"inconclusive [inhibitor, single point]"
19,Cc1ccc(-c2nnc(-c3ccccc3S(=O)(=O)Cc3ccc(Cl)cc3)o2)cc1,active: 23.1 µM
20,Cc1ccc(NC(=O)C2CCCN2C(=O)OC(C)(C)C)cc1C (stereo not given),inactive
